This is one part of the list. Interaction screen of human proteins with wild-type SARS-CoV-2 proteins by split-DHFR complementation in yeast, 1 µg/mL methotrexate. Value = fitness of the pair (three or more lineages) minus that of the viral protein without a human partner, on a scale set by negative (0) and fused positive (1) controls, mean of up to three cultures; higher = more likely to interact. Active = false discovery rate below 0.05 (one-sided t-test) in at least one culture. Nearly all pairs are not hits, and differences among them are mostly noise (correlation between cultures about 0.3); most hits were seen in one culture only. Human sequences are the Swiss-Prot entries looked up by gene name; the clone may be another isoform. NSP2 values were corrected by the authors for a growth advantage. Listed are human proteins with a hit and a random twelfth of the others.
What was measured:
Assay in all cases: yeast fitness gain over the viral ORF with no human partner (scaled fitness); higher = more likely to interact
SARS-CoV-2 NSP10 = molecular target: SARS-CoV-2 NSP10
Description: (§1)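 Split mouse DHFR complementation in pooled diploid yeast: human ORFeome clones carry one fragment and viral ORFs the other; barcoded lineages compete in 1 µg/mL methotrexate and fitness is read by barcode sequencing in up to three cultures.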

SARS-CoV-2 NSP12 = molecular target: SARS-CoV-2 NSP12
Description: as §1

SARS-CoV-2 NSP13 = molecular target: SARS-CoV-2 NSP13
Description: as §1

SARS-CoV-2 NSP15 = molecular target: SARS-CoV-2 NSP15
Description: as §1

SARS-CoV-2 NSP16 = molecular target: SARS-CoV-2 NSP16
Description: as §1

SARS-CoV-2 NSP2 = molecular target: SARS-CoV-2 NSP2
Description: as §1

SARS-CoV-2 NSP5 = molecular target: SARS-CoV-2 NSP5
Description: as §1

SARS-CoV-2 NSP6 = molecular target: SARS-CoV-2 NSP6
Description: as §1

SARS-CoV-2 NSP7 = molecular target: SARS-CoV-2 NSP7
Description: as §1

SARS-CoV-2 ORF3B = molecular target: SARS-CoV-2 ORF3B
Description: as §1

SARS-CoV-2 ORF6 = molecular target: SARS-CoV-2 ORF6
Description: as §1

SARS-CoV-2 ORF7A = molecular target: SARS-CoV-2 ORF7A
Description: as §1

SARS-CoV-2 ORF7B = molecular target: SARS-CoV-2 ORF7B
Description: as §1

SARS-CoV-2 ORF8 = molecular target: SARS-CoV-2 ORF8
Description: as §1

SARS-CoV-2 ORF9B = molecular target: SARS-CoV-2 ORF9B
Description: as §1

SARS-CoV-2 S = molecular target: SARS-CoV-2 S
Description: as §1

SARS-CoV-2 NSP8 = molecular target: SARS-CoV-2 NSP8
Description: as §1

SARS-CoV-2 ORF10 = molecular target: SARS-CoV-2 ORF10
Description: as §1

[1] = molecular target: SARS-CoV-2 ORF9Bwu (the 73-codon ORF)
Description: as §1

Measured: yeast fitness gain

B1: TEFM, Q96QE5 (protein)
chain: MSGSVLFTAGERWRCFLTPSRSSLYWALHNFCCRKKSTTPKKITPNVTFCDENAKEPENALDKLFSSEQQASILHVLNTASTKELEAFRLLRGRRSINIVEHRENFGPFQNLESLMNVPLFKYKSTVQVCNSILCPKTGREKRKSPENRFLRKLLKPDIERERLKAVNSIISIVFGTRRIAWAHLDRKLTVLDWQQSDRWSLMRGIYSSSVYLEEISSIISKMPKADFYVLEKTGLSIQNSSLFPILLHFHIMEAMLYALLNKTFAQDGQHQVLSMNRNAVGKHFELMIGDSRTSGKELVKQFLFDSILKADPRVFFPSDKIVHYRQMFLSTELQRVEELYDSLLQAIAFYELAVFDSQP
inactive: SARS-CoV-2 NSP10 = -0.171 | SARS-CoV-2 NSP12 = -0.103 | SARS-CoV-2 NSP13 = -0.102 | SARS-CoV-2 NSP15 = 0.0226 | SARS-CoV-2 NSP16 = -0.0345 | SARS-CoV-2 NSP2 = -0.391 | SARS-CoV-2 NSP5 = 0.0172 | SARS-CoV-2 NSP6 = -0.174 | SARS-CoV-2 NSP7 = -0.0449 | SARS-CoV-2 ORF3B -0.0593 | SARS-CoV-2 ORF6 = -0.0735 | SARS-CoV-2 ORF7A -0.0175 | SARS-CoV-2 ORF7B -0.0274 | SARS-CoV-2 ORF8 = -0.128 | SARS-CoV-2 ORF9B 0.0179 | SARS-CoV-2 S -0.088

B2: SIGLEC5, O15389 (protein)
chain: MLPLLLLPLLWGGSLQEKPVYELQVQKSVTVQEGLCVLVPCSFSYPWRSWYSSPPLYVYWFRDGEIPYYAEVVATNNPDRRVKPETQGRFRLLGDVQKKNCSLSIGDARMEDTGSYFFRVERGRDVKYSYQQNKLNLEVTALIEKPDIHFLEPLESGRPTRLSCSLPGSCEAGPPLTFSWTGNALSPLDPETTRSSELTLTPRPEDHGTNLTCQMKRQGAQVTTERTVQLNVSYAPQTITIFRNGIALEILQNTSYLPVLEGQALRLLCDAPSNPPAHLSWFQGSPALNATPISNTGILELRRVRSAEEGGFTCRAQHPLGFLQIFLNLSVYSLPQLLGPSCSWEAEGLHCRCSFRARPAPSLCWRLEEKPLEGNSSQGSFKVNSSSAGPWANSSLILHGGLSSDLKVSCKAWNIYGSQSGSVLLLQGRSNLGTGVVPAALGGAGVMALLCICLCLIFFLIVKARRKQAAGRPEKMDDEDPIMGTITSGSRKKPWPDSPGDQASPPGDAPPLEEQKELHYASLSFSEMKSREPKDQEAPSTTEYSEIKTSK
inactive: SARS-CoV-2 NSP10 = -0.257 | SARS-CoV-2 NSP12 = -0.105 | SARS-CoV-2 NSP13 = 0.0666 | SARS-CoV-2 NSP7 = -0.16 | SARS-CoV-2 NSP8 = -0.0719 | SARS-CoV-2 ORF10 = 0.0618 | SARS-CoV-2 ORF6 = 0.0268 | SARS-CoV-2 ORF9B -0.0446

B3: EBF1, Q9UH73 (protein)
chain: MFGIQESIQRSGSSMKEEPLGSGMNAVRTWMQGAGVLDANTAAQSGVGLARAHFEKQPPSNLRKSNFFHFVLALYDRQGQPVEIERTAFVGFVEKEKEANSEKTNNGIHYRLQLLYSNGIRTEQDFYVRLIDSMTKQAIVYEGQDKNPEMCRVLLTHEIMCSRCCDKKSCGNRNETPSDPVIIDRFFLKFFLKCNQNCLKNAGNPRDMRRFQVVVSTTVNVDGHVLAVSDNMFVHNNSKHGRRARRLDPSEGTPSYLEHATPCIKAISPSEGWTTGGATVIIIGDNFFDGLQVIFGTMLVWSELITPHAIRVQTPPRHIPGVVEVTLSYKSKQFCKGTPGRFIYTALNEPTIDYGFQRLQKVIPRHPGDPERLPKEVILKRAADLVEALYGMPHNNQEIILKRAADIAEALYSVPRNHNQLPALANTSVHAGMMGVNSFSGQLAVNVSEASQATNQGFTRNSSSVSPHGYVPSTTPQQTNYNSVTTSMNGYGSAAMSNLGGSPTFLNGSAANSPYAIVPSSPTMASSTSLPSNCSSSSGIFSFSPANMVSAVKQKSAFAPVVRPQTSPPPTCTSTNGNSLQAISGMIVPPM
inactive: SARS-CoV-2 NSP10 = -0.061 | SARS-CoV-2 NSP12 = -0.0813 | SARS-CoV-2 NSP13 = -0.0532 | SARS-CoV-2 NSP2 = -0.158 | SARS-CoV-2 NSP5 = -0.0391 | SARS-CoV-2 NSP7 = 0.161 | SARS-CoV-2 NSP8 = -0.00444 | SARS-CoV-2 ORF10 = -0.0328 | SARS-CoV-2 ORF3B -0.0464 | SARS-CoV-2 ORF6 = 0.054 | SARS-CoV-2 ORF7A 0.0638 | SARS-CoV-2 ORF8 = 0.0331 | SARS-CoV-2 ORF9B -0.0844 | [1] 0.122 | SARS-CoV-2 S 0.0164

B4: CELA2A, P08217 (protein)
chain: MIRTLLLSTLVAGALSCGDPTYPPYVTRVVGGEEARPNSWPWQVSLQYSSNGKWYHTCGGSLIANSWVLTAAHCISSSRTYRVGLGRHNLYVAESGSLAVSVSKIVVHKDWNSNQISKGNDIALLKLANPVSLTDKIQLACLPPAGTILPNNYPCYVTGWGRLQTNGAVPDVLQQGRLLVVDYATCSSSAWWGSSVKTSMICAGGDGVISSCNGDSGGPLNCQASDGRWQVHGIVSFGSRLGCNYYHKPSVFTRVSNYIDWINSVIANN
inactive: SARS-CoV-2 NSP10 = -0.176 | SARS-CoV-2 NSP12 = -0.182 | SARS-CoV-2 NSP2 = -0.0737 | SARS-CoV-2 NSP5 = 0.068 | SARS-CoV-2 ORF8 = -0.233 | SARS-CoV-2 ORF9B -0.0324
